The results in this text go back to PubChem BioAssay AID360 (National Center for Advancing Translational Sciences (NCATS), 2006).

About 550 (1.1%) of roughly 48,000 compounds were called active. Not shown: some 4% with an inconclusive outcome. Cut-off read from the data, not from the text of the source: active = potency below about 15 µM; inconclusive = mostly about 16 µM to 33 µM; inactive = weaker than that. Some of the results follow.
Potency is the fitted concentration of half-maximal effect.

Sequence of UniProt P04062 (P04062 whole entry, looked up): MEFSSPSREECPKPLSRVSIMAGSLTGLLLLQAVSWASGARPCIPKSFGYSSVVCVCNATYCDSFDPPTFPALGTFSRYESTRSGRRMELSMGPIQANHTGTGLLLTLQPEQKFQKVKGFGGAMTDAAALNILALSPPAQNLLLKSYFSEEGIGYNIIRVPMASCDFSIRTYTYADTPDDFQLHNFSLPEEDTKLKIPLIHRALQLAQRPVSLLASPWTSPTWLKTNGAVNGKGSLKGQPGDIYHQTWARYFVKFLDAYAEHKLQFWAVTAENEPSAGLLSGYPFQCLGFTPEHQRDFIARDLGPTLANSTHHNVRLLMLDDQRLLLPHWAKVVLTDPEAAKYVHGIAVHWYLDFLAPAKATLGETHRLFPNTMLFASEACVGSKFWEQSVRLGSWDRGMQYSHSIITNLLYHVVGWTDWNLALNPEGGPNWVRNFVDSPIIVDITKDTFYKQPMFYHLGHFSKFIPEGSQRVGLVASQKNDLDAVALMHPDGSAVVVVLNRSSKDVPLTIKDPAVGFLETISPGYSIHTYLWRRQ

The experiment deals with Lysosomal acid glucosylceramidase (Homo sapiens) (UniProt P04062). Put plainly: Glucocerebrosidase.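 Note: the screen sought inhibitors.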 Particulars: purified enzyme, resorufin glucoside fluorescence (screen aimed at inhibitors), 20 min. The procedure, abridged:
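Compounds titrated against 0.2 nM normal enzyme, 30 uM resorufin beta-D-glucopyranoside substrate, citrate/phosphate buffer with taurocholate and tween-20, pH 5.9. Reaction ran 20 min at room temperature; fluorescence (Ex 548/Em 600) gave AC50.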
Regarding `COc1ccc(C(c2nnnn2C2CCCCC2)N2CCN(c3ccccc3F)CC2)cc1` (stereo not given), the Potency result was “inactive”.
As for `O=C(COC(=O)C1=COCCO1)Nc1ccccc1Oc1ccccc1`, the figure is inactive: > 76.9 µM; as for `CCOC(=O)c1ccc(NC(=O)CSc2nnc(-c3cccs3)n2CC)cc1`, inactive: > 76.9 µM.
Regarding `CCCNC(=O)C1CCN(S(=O)(=O)c2ccc(Br)cc2)CC1`, the Potency was inactive: > 76.9 µM.
Regarding `CCOC(=O)Cn1c2c(c(-c3ccccc3OC)cc1=O)CCCC2`, the Potency is inactive: > 76.9 µM.
Next, `CCOc1ccc(N2C(=O)CC(Sc3ncccn3)C2=O)cc1` (stereo not given): inactive: > 76.9 µM; `N=c1n(CCN2CCOCC2)c2ccccc2n1CC(O)COc1ccccc1` (stereo not given): “inactive”; `Cc1cccc(OCC(=O)Nc2ccc(N3CCN(S(C)(=O)=O)CC3)cc2)c1`: inactive: > 76.9 µM.
Take `CC(=O)Nc1ccc(S(=O)(=O)NCCNC(=O)c2ccccc2F)cc1`: the Potency is inactive: > 76.9 µM.
Take `CCOc1ccc(-c2nnc(-c3cccs3)o2)cc1OCC`: the Potency was inactive: > 76.9 µM.
On to `COc1ccccc1-n1cnc(N)c1C(=O)c1ccccc1`, for which the Potency was inactive: > 76.9 µM.
For the compound `[O-][n+]1onc2c1CCc1c-2nn(-c2ccccc2Cl)[n+]1[O-]`, the Potency was inactive: > 76.9 µM.
Next, `Cc1cc(Br)ccc1OCc1nc(-c2cccnc2)no1`: inactive: > 76.9 µM; `CCOC(=O)c1c(C)c(C(=O)NCc2cccnc2)c(C)n1CC`: inactive: > 76.9 µM.
Next, `CC(=O)NC(Cc1ccc(C)cc1)C(=O)NC1CCN(C(=O)c2cnccn2)CC1` (stereo not given): inactive: > 76.9 µM; `CCN1CCN(C(c2cc(OC)c(OC)c(OC)c2)c2nnnn2C(C)C)CC1` (stereo not given): inactive: > 76.9 µM.
As for `CN(C1=NC(=O)C(CC(=O)Nc2ccc(Br)cc2)S1)c1ccc(O)cc1` (stereo not given), the entry is “inactive”; as for `CC(=O)N1CCN(CCN=CC2=C(O)CC(C)(C)CC2=O)CC1`, inactive: > 76.9 µM.
`CCOC(=O)CSc1nnc(NC(=O)c2cccc(S(=O)(=O)N3CCCCC3)c2)s1`: the Potency is inactive: > 76.9 µM.
As to `CCn1c(CNC(=O)c2ccc(OC)cc2)nnc1SCC(=O)c1ccccc1`, the Potency is inactive: > 76.9 µM.
For the compound `O=C(O)CCC(=O)Nc1nnc(C(F)(F)F)s1`, the Potency was inactive: > 76.9 µM.
Turning to `Cc1ccc(-n2ncc3c(=O)n(CC(=O)NCC4CCCO4)cnc32)cc1` (stereo not given), the Potency was inactive: > 76.9 µM.
As for `CC1(C)CC(=O)C(/C=N/c2ncccc2C(=O)O)=C(O)C1`, the Potency was inactive: > 76.9 µM.
For `O=C(CN1C(=O)NC2(CCCCCCC2)C1=O)NC(=O)NCc1ccco1`, the Potency was inactive: > 76.9 µM.
Next, `CCOC(=O)N1CCN(c2c(NCCCN(CC)c3cccc(C)c3)c(=O)c2=O)CC1`: inactive: > 76.9 µM.
